Results from paper PMC6919601, “Identification of Plasmodium dipeptidyl aminopeptidase allosteric inhibitors by high throughput screening” (PLoS ONE, 2019).
About 230 (0.21%) of roughly 110,000 compounds showed an effect of 50% or more. The list shows a part of the results.

Molecular target: DPAP1 (Plasmodium falciparum, UniProt Q8IIJ9)
Test: primary screen, percent inhibition; read by cleavage of a fluorogenic dipeptide substrate; higher = more effect of the substance
Set-up: species or system P. falciparum D10 trophozoite lysates; single well
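Also: 30 min substrate incubation versus DMSO and 10 µM JCP410 controls.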

DPAP1, sequence (Q8IIJ9 whole entry, looked up): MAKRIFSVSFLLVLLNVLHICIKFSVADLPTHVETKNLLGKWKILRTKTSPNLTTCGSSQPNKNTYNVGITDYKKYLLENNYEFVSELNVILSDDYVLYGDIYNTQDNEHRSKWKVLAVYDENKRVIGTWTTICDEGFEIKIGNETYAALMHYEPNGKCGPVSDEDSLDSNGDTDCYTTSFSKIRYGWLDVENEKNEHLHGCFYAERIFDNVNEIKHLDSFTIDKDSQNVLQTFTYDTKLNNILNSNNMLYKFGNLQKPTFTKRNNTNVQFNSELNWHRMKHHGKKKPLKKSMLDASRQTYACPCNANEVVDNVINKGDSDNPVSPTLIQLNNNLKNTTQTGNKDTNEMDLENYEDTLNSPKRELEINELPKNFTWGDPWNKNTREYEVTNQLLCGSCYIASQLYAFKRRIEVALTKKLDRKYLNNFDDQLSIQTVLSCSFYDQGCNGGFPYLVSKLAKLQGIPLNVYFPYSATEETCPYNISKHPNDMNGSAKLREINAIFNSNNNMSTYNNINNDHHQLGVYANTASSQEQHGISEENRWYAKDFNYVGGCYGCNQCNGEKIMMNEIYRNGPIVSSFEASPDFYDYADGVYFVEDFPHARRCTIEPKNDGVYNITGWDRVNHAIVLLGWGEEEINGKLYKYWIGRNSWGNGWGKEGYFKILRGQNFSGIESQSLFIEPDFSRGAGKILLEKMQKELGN

Question: How did the “% Inhibition @ 10 uM” value turn out when `COC(=O)c1ccc(C(c2c(O)oc3ccccc3c2=O)c2c(O)oc3ccccc3c2=O)cc1` was run?
Answer: Its value is 7.95%.

Question: How did the “% Inhibition @ 10 uM” value turn out when `Cc1cccc(S(=O)(=O)Nc2cccc(-c3cn4cccnc4n3)c2)c1` was run?
Answer: The value was 0.13%.

Question: Which “% Inhibition @ 10 uM” value does the source give for `CCN(CC)CCn1c(SCC(=O)N2CCC(C)CC2)nc2c(sc3ccccc32)c1=O` here?
Answer: The value was 5.27%.

Question: Which “% Inhibition @ 10 uM” value does the source give for `COC(=O)C1=C(C)N=c2s/c(=C/c3ccc(Cl)cc3)c(=O)n2C1c1ccccc1` (stereo not drawn) here?
Answer: Its value is -2.91%.

Question: `O=C(O)c1nccnc1C(=O)Nc1ccc(Cl)cc1` was tested. Which “% Inhibition @ 10 uM” value did it give?
Answer: The value was 1.29%.

Question: Which “% Inhibition @ 10 uM” value does the source give for `COc1ccccc1C(=O)Nc1c(C(=O)N2CCN(C)CC2)oc2ccccc12` here?
Answer: Its value is -4.22%.

Question: How did the “% Inhibition @ 10 uM” value turn out when `Cc1ccc(-n2nc(C)c3c(C(=O)NCc4ccccn4)cc(C4CC4)nc32)cc1` was run?
Answer: Its value is 3.53%.

Question: `CCCCNC(=O)CCC(=O)N1Cc2ccccc2Oc2ncccc21` was tested. Which “% Inhibition @ 10 uM” value did it give?
Answer: The value was -3.53%.

Question: How did the “% Inhibition @ 10 uM” value turn out when `O=C1CN=C(Nc2nc3ccccc3o2)N1` was run?
Answer: Its value is 0.345%.

Question: How did the “% Inhibition @ 10 uM” value turn out when `CCCC1=NN2C(=N)/C(=C/c3ccc(O)c(OC)c3)C(=O)N=C2S1` was run?
Answer: Its value is -6.69%.

Question: For `CCN(CC)CCN1CC(c2ccccc2)CC1=O` (stereo not drawn), which “% Inhibition @ 10 uM” value is on record?
Answer: Its value is -1.42%.

Question: Which “% Inhibition @ 10 uM” value does the source give for `Cc1nn(CC(=O)NCc2cccc(Cl)c2)c(=O)c2c1sc1ccccc12` here?
Answer: Its value is 2.06%.

Question: Which “% Inhibition @ 10 uM” value does the source give for `O=C(Cc1ccccc1)Nc1ccc(C(=O)c2ccccc2)cc1` here?
Answer: Its value is 0.686%.

Question: For `CCOC(=O)N1CCN(C(=O)C(C)n2ccc3cc(S(=O)(=O)N4CCCCCC4)ccc32)CC1` (stereo not drawn), which “% Inhibition @ 10 uM” value is on record?
Answer: The value was 4.32%.

Question: `COc1ccc(-c2noc(C3CCN(C(=O)OC(C)(C)C)CC3)c2C(=O)O)cc1` was tested. Which “% Inhibition @ 10 uM” value did it give?
Answer: Its value is -2.83%.

Question: How did the “% Inhibition @ 10 uM” value turn out when `COc1cccc(CSc2nc3ccncc3n2CC(=O)NCCC2=CCCCC2)c1` was run?
Answer: Its value is 2.45%.

Question: `O=C(COc1ccccc1Br)Nc1cccc(C(F)(F)F)c1` was tested. Which “% Inhibition @ 10 uM” value did it give?
Answer: The value was -3.23%.

Question: With `CCc1oc(C(=O)O)cc1CN1CCCCC1` as the compound, how does the “% Inhibition @ 10 uM” value read?
Answer: Its value is 0.0539%.

Question: `COc1ccc(OC)c(S(=O)(=O)NCc2ccccc2)c1` was tested. Which “% Inhibition @ 10 uM” value did it give?
Answer: The value was 5.31%.

Question: For `Cc1ccc(Cc2nnc(C(=O)NCCCN3CCC(Cc4ccccc4)CC3)o2)cc1`, which “% Inhibition @ 10 uM” value is on record?
Answer: The value was -2.23%.

Question: For `Cc1c(CN2CC(C)CC(C)C2)c(=O)n(-c2ccccc2)n1C` (stereo not drawn), which “% Inhibition @ 10 uM” value is on record?
Answer: Its value is -3.27%.

Question: With `COC(=O)c1ccc(/C=N\n2c(C)nnc2C)cc1` as the compound, how does the “% Inhibition @ 10 uM” value read?
Answer: Its value is -3.98%.

Question: Which “% Inhibition @ 10 uM” value does the source give for `Cc1ccc(C(=O)N/C(=C/c2cccnc2)C(=O)Nc2cccc(Br)c2)cc1` here?
Answer: The value was -4.03%.

Question: How did the “% Inhibition @ 10 uM” value turn out when `Cc1ccc(-n2nc3c(=O)n(C(C)C(=O)NCc4ccc5c(c4)OCO5)nc(C)c3c2C)cc1` (stereo not drawn) was run?
Answer: Its value is 9.94%.

Question: For `Cc1cc2c(o1)-c1c(oc3ccccc13)CCC2(C)c1ccccc1` (stereo not drawn), which “% Inhibition @ 10 uM” value is on record?
Answer: Its value is 1.62%.

Question: How did the “% Inhibition @ 10 uM” value turn out when `CCOC(=O)C1=C(c2ccccc2)O/C(=C(/C(=O)OC)C(F)(F)F)S1` was run?
Answer: Its value is -1.6%.

Question: `CCOC(=O)C1=CN(C)C=C(C(=O)OCC)C1c1ccc(O)c(OC)c1` was tested. Which “% Inhibition @ 10 uM” value did it give?
Answer: Its value is 3.45%.

Question: `CN1CCN(c2cc([N+](=O)[O-])ccc2Cl)CC1` was tested. Which “% Inhibition @ 10 uM” value did it give?
Answer: The value was -5.62%.

Question: `CCOc1cc(-c2ccc(O)cc2)cc(=O)c2c(C)oc(C)c12` was tested. Which “% Inhibition @ 10 uM” value did it give?
Answer: The value was -8.52%.

Question: For `Oc1c2c(nc3nc(-c4ccco4)nn13)CCC2`, which “% Inhibition @ 10 uM” value is on record?
Answer: Its value is -6.04%.

Question: `CCCNCP(=O)(O)CNCCC` was tested. Which “% Inhibition @ 10 uM” value did it give?
Answer: The value was -2.63%.

Question: Which “% Inhibition @ 10 uM” value does the source give for `O=C(CN(CCc1ccccc1)S(=O)(=O)c1ccc(Cl)cc1)NCc1ccccn1` here?
Answer: The value was -4.51%.

Question: Which “% Inhibition @ 10 uM” value does the source give for `COc1ccc(-c2cc(C)no2)cc1S(=O)(=O)NCCc1ccc(SC)cc1` here?
Answer: Its value is -0.873%.

Question: Which “% Inhibition @ 10 uM” value does the source give for `C=CCNC(=O)C(=O)NCc1ccccc1` here?
Answer: Its value is -2.18%.

Question: How did the “% Inhibition @ 10 uM” value turn out when `CC1(C)CC(=O)C2=C(C1)NC(=O)CC2c1ccc2ccccc2c1` (stereo not drawn) was run?
Answer: The value was 8.91%.

Question: With `CCOC(=O)c1c(NC(=O)COc2ccc(Cl)cc2C)sc(C(=O)NC2CCCC2)c1C` as the compound, how does the “% Inhibition @ 10 uM” value read?
Answer: The value was 2.25%.

Question: For `CCOC(=O)c1c(NC(=O)COc2ccc(Cl)cc2C)sc(C(=O)N2CCCCC2)c1C`, which “% Inhibition @ 10 uM” value is on record?
Answer: The value was -1.46%.

Question: Which “% Inhibition @ 10 uM” value does the source give for `Cc1ccc(C(=O)Nc2nc(-c3ccc(Cl)cc3)cs2)o1` here?
Answer: The value was -8.05%.

Question: `CC/N=C1/SC(CC(=O)Nc2cccc(C(F)(F)F)c2)C(=O)N1CC` (stereo not drawn) was tested. Which “% Inhibition @ 10 uM” value did it give?
Answer: The value was -1.57%.

Question: Which “% Inhibition @ 10 uM” value does the source give for `COc1cc(Br)cc(/C=C2/NC(=O)N(c3cccc(Cl)c3)C2=O)c1O` here?
Answer: The value was 0.764%.

Question: With `CC(=O)N(CCCN(C)C)c1nc2cc(C)cc(C)c2s1` as the compound, how does the “% Inhibition @ 10 uM” value read?
Answer: The value was 0.49%.

Question: How did the “% Inhibition @ 10 uM” value turn out when `NC(=O)Cn1c(=O)n(Cc2ccc(F)cc2)c(=O)c2cccnc21` was run?
Answer: The value was 1.72%.

Question: With `CC(C)C[C@@H](/C=C/S(C)(=O)=O)NC(=O)[C@H](Cc1ccc(O)cc1)NC(=O)[C@H](CC(C)C)NC(=O)[C@H](CC(C)C)NC(=O)OC(C)(C)C` as the compound, how does the “% Inhibition @ 10 uM” value read?
Answer: Its value is -1.41%.

Question: How did the “% Inhibition @ 10 uM” value turn out when `c1ccc(CCN2CCC(N(CCc3ccccc3)Cc3ccccc3)CC2)cc1` was run?
Answer: The value was -1.81%.

Question: With `COc1cc(C2CC(=O)c3c([nH]c(C(=O)OCc4ccccc4)c3C)C2)cc(OC)c1OC` (stereo not drawn) as the compound, how does the “% Inhibition @ 10 uM” value read?
Answer: Its value is -1.92%.

Question: How did the “% Inhibition @ 10 uM” value turn out when `CCOC(=O)N1CCN(C(=O)CSc2ccc(-c3cccs3)nn2)CC1` was run?
Answer: The value was 15%.

Question: Which “% Inhibition @ 10 uM” value does the source give for `O=C(Nc1nc(-c2ccc(S(=O)(=O)N3CCCC3)cc2)cs1)C1COc2ccccc2O1` (stereo not drawn) here?
Answer: The value was 2.64%.

Question: Which “% Inhibition @ 10 uM” value does the source give for `Cn1nc(C(=O)NCc2cccnc2)c2c1-c1ccccc1S(=O)(=O)C2` here?
Answer: Its value is 0.0845%.
